The campaign covered roughly 310,000 compounds. About 2,200 (0.71%) showed an effect of 50% or more. The effect is printed as a negative number. The list shows a part of the results. Where a SMILES comes first, the peptide text is derived from it. [ ]: non-standard residue; d: D form. pGlu = O=C1CC[CH](C(=O)O)N1
These compounds were tested against human ether-à-go-go-related gene (hERG) potassium channel (human, UniProt Q12809) (assay: primary screen, population patch clamp on CHO cells stably expressing hERG).
Sequence of human ether-à-go-go-related gene (hERG) potassium channel (Q12809 whole entry, looked up): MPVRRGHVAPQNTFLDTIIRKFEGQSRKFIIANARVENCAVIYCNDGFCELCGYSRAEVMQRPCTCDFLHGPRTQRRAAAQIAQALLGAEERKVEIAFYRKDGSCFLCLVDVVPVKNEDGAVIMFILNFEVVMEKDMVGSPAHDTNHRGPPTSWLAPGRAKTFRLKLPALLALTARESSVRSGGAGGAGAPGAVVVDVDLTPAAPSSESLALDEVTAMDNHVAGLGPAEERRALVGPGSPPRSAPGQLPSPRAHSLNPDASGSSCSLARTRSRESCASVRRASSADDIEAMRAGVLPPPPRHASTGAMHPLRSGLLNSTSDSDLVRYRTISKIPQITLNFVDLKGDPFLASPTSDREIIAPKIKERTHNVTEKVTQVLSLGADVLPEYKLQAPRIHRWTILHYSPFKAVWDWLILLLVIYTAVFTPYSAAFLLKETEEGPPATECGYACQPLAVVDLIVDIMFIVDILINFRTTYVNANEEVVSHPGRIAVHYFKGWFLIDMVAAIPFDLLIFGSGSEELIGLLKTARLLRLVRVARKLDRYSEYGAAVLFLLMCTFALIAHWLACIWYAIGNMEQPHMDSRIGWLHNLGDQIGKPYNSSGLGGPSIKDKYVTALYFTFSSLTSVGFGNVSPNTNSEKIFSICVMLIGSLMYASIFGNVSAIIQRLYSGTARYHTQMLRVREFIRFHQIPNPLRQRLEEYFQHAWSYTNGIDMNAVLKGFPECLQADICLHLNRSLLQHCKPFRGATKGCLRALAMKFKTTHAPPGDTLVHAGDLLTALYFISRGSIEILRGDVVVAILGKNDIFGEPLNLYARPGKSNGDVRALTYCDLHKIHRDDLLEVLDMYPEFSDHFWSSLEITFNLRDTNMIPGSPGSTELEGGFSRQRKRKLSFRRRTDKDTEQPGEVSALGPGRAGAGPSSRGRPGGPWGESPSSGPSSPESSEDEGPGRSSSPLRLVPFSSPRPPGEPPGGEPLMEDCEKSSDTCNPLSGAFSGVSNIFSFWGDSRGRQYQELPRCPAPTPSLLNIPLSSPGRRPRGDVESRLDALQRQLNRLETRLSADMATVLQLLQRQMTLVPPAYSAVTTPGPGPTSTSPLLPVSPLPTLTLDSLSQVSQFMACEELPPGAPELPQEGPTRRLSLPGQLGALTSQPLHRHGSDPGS

Row | SMILES | hERG current change (%, negative = inhibition) at 1uM
1 | Cc1cccc(C(=O)O)c1NC(=O)Cc1cccc2ccccc12 | 10.6%
2 | Nc1nc2c([N+](=O)[O-])cccc2s1 | 13.9%
3 | Cn1c(=O)c(C(=O)NCCc2ccccc2)c(O)c2ccccc21 | 18.8%
4 | COc1ccc(CN(C)CC(=O)Nc2ccccc2-c2ccccc2)c(OC)c1 | 20.2%
5 | COc1ccc2nc(NC(=O)/C=C/c3ccc4c(c3)OCO4)sc2c1 | 14%
6 | O=c1[nH]cc(S(=O)(=O)N2CCN(c3cccc(C(F)(F)F)c3)CC2)c(=O)[nH]1 | 19%
7 | CC(=C\c1ccccc1)/C=C1/SC(=O)N(CCCC(=O)Nc2ccc(C(=O)O)cc2)C1=O | 9.44%
8 | COC(=O)C1=C(c2ccc(OC)c(OC)c2)C[C@@H]2CC[C@H]1N2C(=O)NC(C)C | 14.3%
9 | CC(=O)C1=C(C)NC(SCc2cccc([N+](=O)[O-])c2)=C(C#N)C1c1ccco1 (stereo not drawn) | 4.84%
10 | COc1ccc(C(=O)N/C(=C\c2ccc3c(c2)OCO3)C(=O)N2CCOCC2)cc1 | 27.1%
11 | O=C1CS(=O)CN1c1ccc(Oc2ccccc2)cc1 (stereo not drawn) | 0.253%
12 | O=C(Nn1c(-c2ccc(Br)cc2)nc2ccccc2c1=O)c1ccncc1 | 12.4%
13 | Cc1cccn2c(=O)nc(SCC(=O)NC3CCCCC3)nc12 | 3.54%
14 | CC1(C)Cc2c(sc(NC(=O)c3ccccc3)c2C(=O)O)CO1 | 13.8%
15 | Cn1nnc2cc(NC(=O)NCc3ccc4c(c3)OCO4)ccc21 | 8.61%
16 | COc1ccc(/C=N/NC(=O)c2ccc(Cl)cc2)cc1COC(C)=O | 7.95%
17 | CCn1c(NC(C)=O)c(-c2ccccc2Cl)c(=O)c2ccccc21 | 18.4%
18 | Clc1ccc(CSc2nncn2-c2ccccn2)cc1 | -2.4%
19 | O=C(NCc1cccnc1)C1CC2c3ccccc3C1c1ccccc12 (stereo not drawn) | 8.55%
20 | COc1cc(C(=O)OCC2CC(c3ccccc3)=NO2)cc(OC)c1OC (stereo not drawn) | -7.63%
21 | O=C(Nc1cccc(Cl)c1)c1ccc(-n2cncn2)c([N+](=O)[O-])c1 | -4.82%
22 | CC(=O)c1c(C)nc(-c2ccc(Cl)cc2)nc1N | 3.59%

Row | SMILES | hERG current change (%, negative = inhibition) at 1uM
23 | O=C(COc1ccccc1F)Nc1ccccc1C(=O)NC1CC1 | -2.94%
24 | CCOc1ccc(NC(=O)CCN2CCN(S(=O)(=O)c3ccc(Cl)cc3)CC2)cc1 | 6.48%
25 | CC(=O)N1N=C(c2ccco2)CC1c1cc2ccc(C)cc2nc1Cl (stereo not drawn) | 16.9%
26 | COc1nc2ccccc2nc1CCC(=O)O | 17.3%
27 | CCN1C(=O)N(CC)c2cccc3cccc1c23 | 10.4%
28 | Cc1ccccc1-c1nc(-c2ccc(NC(=O)c3ccc(Br)o3)cc2)no1 | -1.7%
29 | CCCCS(=O)(=O)N1CCCC(C(=O)Oc2ccccc2OC)C1 (stereo not drawn) | 14.5%
30 | COc1ccc(NC(=O)C2C3C=CC4(O3)C2C(=O)N(CCN2CCCCC2C)C4C(=O)NC2CCCCC2)cc1 (stereo not drawn) | 8.36%
31 | O=C1NC(=O)N(Cc2ccccc2)C1=O | 17.9%
32 | Cc1cc2oc(C(=O)NCCc3ccc(S(N)(=O)=O)cc3)cc(=O)c2cc1C | 15.2%
33 | COc1ccccc1CNC(=O)CN1CCC(NC(=O)c2ccccc2F)CC1.Cl | 1.06%
34 | COc1ccc(NC(=O)CN2C(=O)NC(C)(C3CC3)C2=O)cc1S(=O)(=O)N1CCOCC1 (stereo not drawn) | 7.09%
35 | Cc1ccc(-c2cc(C(=O)N/N=C/c3ccc([N+](=O)[O-])o3)c3ccccc3n2)o1 | 10.8%
36 | O=C1Nc2cc(Br)ccc2C1(O)c1ccccc1O (stereo not drawn) | 17.7%
37 | C[C@H](NS(=O)(=O)c1ccc2c(c1)OCCCO2)C(=O)N1CCN(Cc2ccc(C#N)cc2)CC1 | -24.9%
38 | O=C(Cc1cccs1)Nc1ccccc1-c1nc2ccccc2[nH]1 | 8.69%
39 | Cc1ccc2c(c1)C1CN(C)CCC1N2S(=O)(=O)c1ccc(C(C)C)cc1 (stereo not drawn) | -29.4%
40 | CCOC(=O)c1cccc(NC(=O)c2ccc(F)cc2F)c1 | 5.69%
41 | N#CCC(=O)N/N=C/c1cn(Cc2cccc3ccccc23)c2ccccc12 | 12.2%
42 | Oc1c(C(c2ccccn2)N2CCCCC2)cc(Cl)c2cccnc12 (stereo not drawn) | 9.14%
43 | O=C(Nc1ccccn1)c1ccc2nc(-c3ccccc3)c(-c3ccccc3)nc2c1 | 9.71%
44 | CCN(CC(=O)Nc1c(F)cccc1F)C(=O)C1CCN(S(=O)(=O)c2ccc(C)c(C)c2)CC1 | 12.7%

Row | SMILES | hERG current change (%, negative = inhibition) at 1uM
45 | C=CCOc1ccc(/C=C/C(=O)Nc2ccc(C(=O)NC)cc2)cc1 | 5.42%
46 | Cc1nc(-c2ccc(-c3ccon3)s2)no1 | 12.9%
47 | O=C(Oc1ccc(Br)cc1C(=S)N1CCCCC1)c1cc([N+](=O)[O-])cc([N+](=O)[O-])c1 | 16.1%
48 | CCC(C)C(NC(=O)C(CC(C)C)NC(=O)C(CO)NC(=O)C1CCC(=O)N1)C(=O)OC (stereo not drawn) ([pGlu]SLI-OMe; configuration not given here) | 9.98%
49 | COc1ccc(CC(C)NS(=O)(=O)c2ccc3c(c2)CCN3S(C)(=O)=O)cc1OC (stereo not drawn) | -28.7%
50 | Cc1ccccc1Cn1c2ccccc2c2cnn(CC(=O)NCCCN3CCN(C)CC3)c(=O)c21 | 20.2%
51 | C=CCn1c(C)cc(C(=O)COC(=O)CNC(=O)c2ccccc2)c1C | 14.2%
52 | CSCC[C@H](NC(=O)OC(C)(C)C)C(=O)N/N=C/c1cccc2nccnc12 | 14.7%
53 | Cn1ncc(Br)c1C(=O)N/N=C/c1ccc(OS(=O)(=O)c2ccccc2)cc1 | 0.366%
54 | Cn1c(=O)c2c(nc(N3CCCCCC3)n2CC(=O)c2ccc(Br)cc2)n(C)c1=O | 10.1%
55 | CC(/C=C/c1ccco1)=N\NC(=O)CNc1ccc2ccccc2c1 | 13%
56 | CCc1ccc(N2CC(C(=O)N/N=C/c3cc([N+](=O)[O-])ccc3O)CC2=O)cc1 (stereo not drawn) | 13.8%
57 | O=S(=O)(Nc1cccc2ccccc12)c1ccccc1F | 8%
58 | COc1cc(NC(=O)C2CC2)c(OC)cc1NC(=O)c1ccco1 | 17.2%
59 | CN1C(C(=O)NCc2ccco2)=CC(c2ccc(F)cc2)=NS1(=O)=O | -7.32%
60 | c1ccc(-c2cn3c(n2)SCC3)cc1 | 4.72%
61 | COc1ccc(Nc2nc(N3CCN(S(C)(=O)=O)CC3)nc3ccccc23)c(OC)c1 | 8.09%
62 | COc1ccc(C(=O)OCC(=O)N2CCCCC2)cc1[N+](=O)[O-] | 3.15%
63 | CC(NC(=O)c1ccco1)C(=O)N1CCN(c2ccccc2)CC1 (stereo not drawn) | 14.9%
64 | Fc1ccccc1N=C1NN=C(c2ccccc2)CS1 | 5.63%
65 | Cc1ccc(-n2c(C)cc(C(=O)CSc3n[nH]c(N)n3)c2C)cc1 | 8.67%
66 | CC1CCCN(C(=O)COC(=O)Cc2ccc(Cl)cc2)C1 (stereo not drawn) | 14.4%

Row | SMILES | hERG current change (%, negative = inhibition) at 1uM
67 | Nc1cc(Cl)ccc1N1CCOCC1 | 7.51%
68 | Cc1ccc(C(=O)C2=C(O)C(=O)N(c3ncccn3)C2c2ccc(F)cc2)o1 (stereo not drawn) | 34.4%
69 | CCOC(=O)N1CCN(c2cc(=O)n(C3CCCCC3)c(=O)[nH]2)CC1 | 11.1%
70 | CCN1c2ccccc2-c2nc3ccccc3n2C1c1ccccn1 (stereo not drawn) | -23.4%
71 | Cc1ccccc1-n1c(SCC(=O)Nc2cccc3ccccc23)nc(O)cc1=O | 15.9%
72 | CCc1ccc(NC(=S)N2CCN(c3cccc(OC)c3)CC2)cc1 | 7.12%
73 | CC1(C)COC2(OC1)C(=O)Nc1ccccc12 | 11.2%
74 | Cl.O=C(CN1C2=NCCN2c2ccccc21)N1CCOCC1 | 7.12%
75 | COc1ccc(NC(=O)CN2CCN(Cc3ccc4c(c3)OCO4)CC2)cc1OC.O=C(O)C(=O)O | 4.15%
76 | COCCCN1CN(Cc2ccccc2)CNC1=S | 5.8%
77 | COc1ccc(CN2CC(C(=O)NCCCN3CCN(C)CC3)CC2=O)cc1 (stereo not drawn) | 9.04%
78 | COc1cc(Cl)c(C)cc1NC(=O)CCCN1C(=O)CCC1=O | 1.8%
79 | CCN(CC)c1nc2n(c(=O)n1)CCO2 | 11.8%
80 | NC(=O)NC(=O)CSc1nc(C2CCCCC2)n(-c2ccccc2)n1 | 11.8%
81 | COc1ccccc1NS(=O)(=O)c1cc(NC(=O)C(C)(C)C)ccc1N1CCOCC1 | -4.51%
82 | Cc1ccccc1NC(=O)COc1cccc2c1CCNC2=O | 9.18%
83 | COc1ccc(Cl)cc1-c1nc(SCC(=O)N(C)C)n[nH]1 | 16.7%
84 | CC(=O)NC(CC(=O)Oc1ccc(C)cc1Br)c1ccccc1 (stereo not drawn) | 7.85%
85 | COc1ccc(-c2csc(NC(CO)c3nc4ccccc4n3Cc3ccc(C)cc3)n2)cc1 (stereo not drawn) | 11.4%
86 | Cc1ccc(NC(=O)c2ccc(NS(=O)(=O)/C=C/c3ccccc3)cc2)nc1 | -1.05%
87 | Cc1ccc(Cl)cc1NC(=O)C(=O)N1CCCCC1 | 4.49%

Reference: article PMC4336329 (PLoS ONE, 2015)
